# Assay results taken from PMC12136788.
# The other results are listed elsewhere or left out.
# B1: chr2:135724104:135724205:+|CDS|ENSG00000048991|msi1|total|mutant (ssRNA)
# RNA: GGGAGUUCUACAGUCCGACGAUCCAACACUGCCAACCCUGAACGCUCUAAACCCAGUGACUUGGCCUCCACCUACACCGUCUCCGCCACAUUCCCCUCCAUUUCAGCUGCACAGAAUGCACUGAAGAAACAAAUUAACUCAGUCAACAGAGGAUUGAGCAUCA
# B2: chr5:141516432:141516515:-|3pUTR|ENSG00000131504|msi1_unk|total|mutant (ssRNA)
# RNA: GGGAGUUCUACAGUCCGACGAUCCUCAGACAAGGCCCAGCCUGCUUUUUCUCAGCCCUGACUUUCUAAUGGGCUUUCCCCCCCCGGUCAGUCUUGCUGGAUUUGUGCUUUUCUUUUGUGGUUUCUCUGGCCCUGAGAACCGCACAACAGAGGAUUGAGCAUCA
# B3: chr2:96375651:96375752:+|3pUTR|ENSG00000121152|unk|FALSE|unique (ssRNA)
# RNA: GGGAGUUCUACAGUCCGACGAUCAUUGACUAAGACAGUGGGUAUGCAAGAUAAGUUUAUUUUAUAUAAAAUACUUUGGGAAGUAGGUGUUCUAGGACUGGUGUGACAGUUCCAUGAAAUUAUGAGAGACCGGGGAUCCUUCCACAACAGAGGAUUGAGCAUCA
# B4: chr16:68260521:68260622:+|3pUTR|ENSG00000103066|msi1|total|mutant (ssRNA)
# RNA: GGGAGUUCUACAGUCCGACGAUCUCGCAGCUUCCCUGAGCUGCACCUCUUGCUAACCCCACCAUCACACUGCCACCCUGCCCCCGGGUCUCACCCGUACCAAGUGGGUCAGCACAGGGCUGAGGAUGGGGCUCCUAUCCACCCCAACAGAGGAUUGAGCAUCA
# B5: chr5:16663783:16663884:-|3pUTR|ENSG00000145555|msi1|total|mutant (ssRNA)
# RNA: GGGAGUUCUACAGUCCGACGAUCUGAGGAUACAAAAUUCACAGAUGCUCAAGUCCCUGCUAUACAGUGGUAUAAUAUUUGCACCGAACCUGCACACAUCUUUCCUUACCCUUUAAAUCAUCUCCAGGUUACAGAUACCCCGCACAACAGAGGAUUGAGCAUCA
# B6: ENSG00000159459:stop:overlap|stop_codon|ENSG00000159459|stop_codon|NA|stop_codon (ssRNA)
# RNA: GGGAGUUCUACAGUCCGACGAUCUCCGCUCACUGACCUCUCCCUCUCUGACUCAAGCAAUUCUCCCACCUCAGCCUCCCGAAUAGCUGGGACCACAGUGGUGGGAUCAGCAAGUUGAUUUUUAUACUGCUUUCUUGCAUCAUUCAACAGAGGAUUGAGCAUCA
# B7: chr8:97851540:97851652:+|3pUTR|ENSG00000104341|msi1_unk|FALSE|overlapping (ssRNA)
# RNA: GGGAGUUCUACAGUCCGACGAUCCACUUUUGCCAUGAGCCUCUCUGAGCUUGUUUGUUGCUGAAAUGCUACUUUUUAAAAUUUAGAUGUUAGAUUGAAAACUGUAGUUUUCAACAUAUGCUUUGCUGGAACACUGUGAUAGAUCAACAGAGGAUUGAGCAUCA
# B8: chrX:152133309:152134510:-|three_prime_utr|ENSG00000124260|control|control|control (ssRNA)
# RNA: GGGAGUUCUACAGUCCGACGAUCUGAUUUUACUCAUAUGUGGAAUCUAAAAAAAAAAAAAAAAAAAGUUGGUAUCAUGGAAGUAGAGAGUAGAGCAGUAGUUACAUUACAAUUAAAUAGGAGGAAUAAGUUCUAGUGUUCUAUCAACAGAGGAUUGAGCAUCA
# B9: chr14:102729990:102730091:+|3pUTR|ENSG00000089902|msi1|FALSE|unique (ssRNA)
# RNA: GGGAGUUCUACAGUCCGACGAUCUGCGAUGCUCUUUCUGCCAGUCCCUGAAUCUCUGCAGCUUCUCUUACCUGUCUUACCUGUAGUAAAGCACAAUUGCAGUGGCGUCGCAUUCAGAAGAAGGGAAGGUCAGCAGAGGCUAUGCAACAGAGGAUUGAGCAUCA
# B10: ENSG00000142192:stop:overlap|stop_codon|ENSG00000142192|stop_codon|NA|stop_codon (ssRNA)
# RNA: GGGAGUUCUACAGUCCGACGAUCAGAUGCAGCAGAACGGCUACGAAAAUCCAACCUACAAGUUCUUUGAGCAGAUGCAGAACUAGACCCCCGCCACAGCAGCCUCUGAAGUUGGACAGCAAAACCAUUGCUUCACUACCCAUCCAACAGAGGAUUGAGCAUCA
# B11: ENSG00000198589:be:win_3901|CDS|ENSG00000198589|bound_else_gene|NA|bound_elsewhere_windowed (ssRNA)
# RNA: GGGAGUUCUACAGUCCGACGAUCUCUACUGUGUUUCGUAUUCCUGAGUUCAACUGGUCUCAGAUGCAUCAACGUUUGCUCACUGAUCUAUUAUUUUCAAUAGAAACAGAUAUACAGAUGUGGAGAAGCCAUUCAACAAAGACACAACAGAGGAUUGAGCAUCA
# B12: ENSG00000179431:stop:overlap|stop_codon|ENSG00000179431|stop_codon|NA|stop_codon (ssRNA)
# RNA: GGGAGUUCUACAGUCCGACGAUCACUUCCUCGCCAAGCACAUUUUGCACUGUAAGGCCAAGUACGGCCGCCGGUCUGGGACUUAGUGUCACCGGGAGGAAAAGAGAGAGAUCUGGGGCUGGGGUAUGGAUGAUGGGGGGAAGGCAACAGAGGAUUGAGCAUCA
# B13: chr18:58535911:58536012:-|CDS|ENSG00000198796|msi1|total|mutant (ssRNA)
# RNA: GGGAGUUCUACAGUCCGACGAUCUCUGACCUGCCCUAAAAUCCCCGAGUCCUCUGCCGAUCCCAUUGAUGAGAUAAGUGUGACCGAGUACACCAGGGCUGGAAAACCAGAGCCCUCUGAAACCACACCACAGGGCGCCAGAGACAACAGAGGAUUGAGCAUCA
# B14: chr7:116918052:116918157:+|3pUTR|ENSG00000198898|unk|total|mutant (ssRNA)
# RNA: GGGAGUUCUACAGUCCGACGAUCUUUUCAUUUUGUUUGUUCUAAGAGGAUUGAAAAUCAGUUCCGUUUAAAUGUCUUUCUGUCCGGCCUUUCUUUCUUACAAUGAAGAGAUGAUUCUUCCCGUUUAUGGUUAAAAGUUUUUGACAACAGAGGAUUGAGCAUCA
# Molecular target: MSI1 full-length (mouse, UniProt Q61474 1-362)
# Test: nsRBNS (natural sequence RNA bind-n-seq); RBNS binding buffer (assumed for nsRBNS): 25 mM Tris pH 7.5, 150 mM KCl, 3 mM MgCl2, 0.01% Triton X-100, 500 ug/ml BSA, 20 U/ml SUPERase-In, 4 C; UNK is unkempt and MSI1 is Musashi-1; names of the RNAs are library labels; protein concentration not given here; high values mean tight binding
# Sequence of UniProt Q61474 (Q61474 whole entry): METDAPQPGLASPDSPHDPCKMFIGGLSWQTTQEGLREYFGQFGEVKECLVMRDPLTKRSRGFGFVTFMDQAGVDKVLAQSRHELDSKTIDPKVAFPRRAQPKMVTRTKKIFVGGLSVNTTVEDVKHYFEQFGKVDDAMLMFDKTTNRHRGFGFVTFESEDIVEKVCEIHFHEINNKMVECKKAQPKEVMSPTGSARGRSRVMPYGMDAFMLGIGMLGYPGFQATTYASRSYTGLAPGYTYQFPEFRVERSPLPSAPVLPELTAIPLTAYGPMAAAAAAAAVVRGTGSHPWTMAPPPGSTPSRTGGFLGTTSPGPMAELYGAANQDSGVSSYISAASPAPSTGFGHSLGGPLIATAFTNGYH
row,Binder,binding signal
1,B1,0.922 enrichment R
2,B2,0.383 enrichment R
3,B3,0.736 enrichment R
4,B4,0.534 enrichment R
5,B5,0.778 enrichment R
6,B6,0.651 enrichment R
7,B7,0.952 enrichment R
8,B8,8.34 enrichment R
9,B9,0.354 enrichment R
10,B10,0.438 enrichment R
11,B11,0.241 enrichment R
12,B12,0.478 enrichment R
13,B13,0.486 enrichment R
14,B14,0.584 enrichment R
